Source: publication PMC12603070, “A high-throughput screening approach to discover potential colorectal cancer chemotherapeutics: repurposing drugs to identify novel disruptors of 14-3-3 proteins” (Cell Death & Disease, 2025)
Residue numbers refer to the chain shown, from its start. These are yes or no findings as the source states them, for the method shown. In cells and extracts the contact can be indirect. Some results given as binding are weak or reduced against the parent protein; the word gives no strength.

By UniProt entry, the sequences of proteins in these tests, tags left out.
UniProt P63104: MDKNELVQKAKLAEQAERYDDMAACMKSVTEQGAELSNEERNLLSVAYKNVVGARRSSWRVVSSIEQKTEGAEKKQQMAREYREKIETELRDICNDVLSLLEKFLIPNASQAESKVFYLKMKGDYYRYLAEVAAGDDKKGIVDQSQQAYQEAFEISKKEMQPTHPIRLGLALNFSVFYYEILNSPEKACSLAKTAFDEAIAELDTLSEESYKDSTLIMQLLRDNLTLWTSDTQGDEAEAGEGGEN

Key:
[1] = biological target: T1, BAD-112-136F-112A-mC (murine) (UniProt Q61337); test: FRET or BRET; BRET in living NIH-3T3 cells co-transfected with separate plasmids for the Rluc8 donor and the mCitrine acceptor; compared with mCitrine alone
T1 sequence: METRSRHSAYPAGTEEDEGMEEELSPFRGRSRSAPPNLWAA

[2] = biological target: T2, BAD-112-136F-136A-mC (murine) (UniProt Q61337); test: as above
T2 sequence: T1 sequence with A9S, S33A

[3] = biological target: T3, BAD-112-136F-AA-mC (murine) (UniProt Q61337); test: as above
T3 sequence: T1 sequence with S33A

BAD-112-136F-mC (murine) [4] = biological target: T4, BAD-112-136F-mC (murine) (UniProt Q61337); test: as above
T4 sequence: T1 sequence with A9S

BAD-112-136F-mC (murine) [5] = biological target: T4, BAD-112-136F-mC (murine); test: co-IP; lysate (RIPA buffer) of NIH-3T3 cells expressing the BRET sensor, treated with DMSO or FTY-720 (20 μM, 3 h); mCitrine precipitated with anti-GFP antibody and protein A/G magnetic beads; blots with anti-GFP and anti-Renilla luciferase

- binding [1]: binds
- binding [2]: no binding
- binding [3]: no binding
- binding (BAD-112-136F-mC (murine) [4]): binds
- binding (BAD-112-136F-mC (murine) [5]): binds
Substance: 14-3-3ζ-Rluc8 (from UniProt P63104 1-245)
